Among the data in PubChem BioAssay AID463173 (ICCB-Longwood Screening Facility, Harvard Medical School, 2010) are survival values, retold here.

Hit rate of the full screen: of about 52,000 compounds, about 4,300 (8.3%) were called active. No stated cut-off is given here; in the data, active means survival mostly below about 52% (no sharp cut-off); inactive means mostly above about 56%. The list shows a part of the results.

This experiment has as its system DeltatarO mutant. In words: growth inhibition of S. aureus wild type versus tarO mutant, primary screen, teichoic acid synthesis inhibitors, RN4220, OD600 (AID 463173). The following applies: OD600, 18 h, stronger effect = lower value, screened at 18.75 µg/mL (by protocol).
As to `COc1ccccc1CNC(=O)C1CCN(c2nc3ccc(C)cc3[nH]2)CC1`, the survival is inactive: 100%.
Next, `COc1ccccc1C1NC(=O)c2n[nH]c(-c3cccs3)c21` (centres undefined): inactive: 65%; `CC1CCN(C(=O)c2c(NC(=O)c3ccccc3Cl)sc3c2CCC(C(C)(C)C)C3)CC1` (centres undefined): active: 10%; `Cc1cc2nc(-c3ccc(OCc4ccccc4C)cc3)cc(C(F)(F)F)n2n1`: active: 13%.
The value for `COc1cc(C2CC(=O)N(Cc3cccc(F)c3)c3ccccc3S2)cc(OC)c1OC` (centres undefined) was inactive: 103%; that for `Cc1cc(C)cc(-n2ccnc2SCC(=O)Nc2cccc3ccccc23)c1` was inactive: 77%; that for `COc1ccc(NC(=O)C2CCC(CNS(=O)(=O)c3cccc4nsnc34)CC2)cc1OC` (centres undefined) was inactive: 86%.
The value for `CCCOC(=O)c1cccc(Nc2nc(CCC)cc(=O)[nH]2)c1` was active: 10%.
For the compound `CCOC(=O)Cn1c(=N)n(Cc2ccc(C(C)(C)C)cc2)c2ccccc21`, the survival is inactive: 103%.
The value for `COCCNC(=O)CCCn1c(SCC(=O)Nc2ccc(F)cc2)nc2c(sc3ccccc32)c1=O` was inactive: 76%.
Next, `Cc1nc2cc(-c3ccccc3)nn2c(C)c1CCC(=O)N1CCN(c2ccc(F)cc2)CC1`: inactive: 50%.
The value for `COC(=O)c1cc2oc(C)cc2n1Cc1ccccc1Cl` was active: -8%.
Take `CSc1nc(NCCOC(C)=O)c(C#N)c(-c2ccc(C(C)(C)C)cc2)n1`: the survival was inactive: 67%.
With `COc1ccc(C2C(=O)N(C3CCCCC3)CC(=O)N2CCc2ccc(C)cc2)cc1OC` (centres undefined), the survival was inactive: 89%.
Next, `Cc1ccc2nc(CN3CCN(C(=O)Nc4ccc(F)cc4)CC3)oc2c1`: inactive: 80%; `CNC(=O)C1CCC(Cn2c(=O)c3sccc3n(Cc3cc(C)ccc3C)c2=O)CC1` (centres undefined): active: 47%; `COc1ccc(N2C(=O)NC(NS(=O)(=O)c3ccc(Cl)cc3)(C(F)(F)F)C2=O)cc1` (centres undefined): inactive: 166%.
As for `CCc1ccc(S(=O)(=O)c2cn(CC(=O)Nc3ccc(F)c(Cl)c3)c3ccccc3c2=O)cc1`, the survival was inactive: 71%.
Regarding `CCN(C(=O)Cn1c(C(=O)OC)cc2sc(Cl)cc21)c1cccc(C)c1`, the survival is inactive: 100%.
Regarding `COC1(OC)c2nonc2C(OC)(OC)c2nonc21`, the survival was inactive: 98%.
Turning to `NC(=O)CSc1nnc(-c2ccc(S(=O)(=O)N3CCCC3)cc2)o1`, the survival was inactive: 78%.
In the case of `COc1ccc(Nc2nc(C(=O)NCc3ccco3)cs2)cc1`, the survival was inactive: 96%.
The value for `CCOc1ccc(-c2cn3c(n2)sc2cc(C(=O)NCCCN4CCCCCC4)ccc23)cc1` was active: -2%; that for `CCc1ccc2oc(C(=O)NCC(c3ccc(OC)cc3)N3CCCCC3)c(C)c2c1` (centres undefined) was inactive: 81%; that for `CC1=C(C(=O)Nc2cccnc2)C(c2ccc(F)cc2)n2nc(-c3cccc(C)c3)nc2N1` (centres undefined) was inactive: 49%.
Next, `Cc1cc(NC(=O)C2CCN(S(=O)(=O)c3c(C)noc3C)CC2)ccc1Br`: inactive: 72%; `COc1ccccc1C(=O)Nc1ccc(NC(=O)c2ccccc2)nc1`: inactive: 92%; `CCc1c(C)nc(SCC(=O)Nc2ccc3c(c2)OCCO3)[nH]c1=O`: inactive: 69%.
Next, `COc1ccc(-c2nc3nc(C)cc(C)n3c2Nc2c(C)cccc2C)cc1`: inactive: 53%; `COc1ccccc1CNC(=O)C1(c2cccs2)CCOCC1`: inactive: 75%; `N/C(=N\OC(=O)c1ccccc1)c1cccnc1`: inactive: 87%.
For the compound `COc1ccc(NC(=O)CCc2c(C)nc3c(c2C)c(=O)n(C)c(=O)n3C)c(OC)c1`, the survival is inactive: 100%.
The value for `CCc1ccccc1NC(=O)Cn1nc2c3cc(F)ccc3n(Cc3cccc(C)c3)cc-2c1=O` was inactive: 84%; that for `O=C(COc1ccccc1F)Nc1ccc2nc(SCC(=O)N3CCc4ccccc43)sc2c1` was inactive: 61%; that for `O=S(=O)(c1ccc2ccccc2c1)N1CCCCCC1` was inactive: 95%.
Take `CCOC(=O)c1c(NC(=O)c2cc(-c3ccccc3OC)on2)sc(C)c1C`: the survival was inactive: 61%.
Next, `Cc1cc(C)cc(OCCSc2nc3ccc(NC(=O)c4ccc5c(c4)OCO5)cc3s2)c1`: inactive: 64%.
The value for `Oc1ccccc1-c1nc(-c2cccs2)c(-c2cccs2)[nH]1` was active: 0%; that for `O=C(COc1ccccc1Cl)Nc1ccc(OCc2cc(=O)n3ccsc3n2)cc1` was inactive: 82%.
The value for `CCc1ccc(OCC(=O)Nc2ccc3c(c2)c2ccccc2n3CC)cc1` was inactive: 51%; that for `N#Cc1c[nH]n2c(NC3CCCCC3)c(-c3ccc(F)cc3)nc12` was inactive: 53%; that for `Cc1cccc(-n2ccnc2SCC(=O)Nc2cccc3ccccc23)c1` was inactive: 95%.
Regarding `CCOc1cc(C2c3c(-c4cc(C)ccc4O)n[nH]c3C(=O)N2CCCOC(C)C)ccc1O` (centres undefined), the survival was inactive: 90%.
In the case of `CCn1ccc2cc(S(=O)(=O)N3CCCN(C(=O)Nc4ccccc4F)CC3)ccc21`, the survival is inactive: 93%.
The value for `O=C(COC(=O)c1cc(-c2cccs2)nc2ccccc12)c1ccc(F)cc1` was inactive: 51%; that for `O=C(CSc1nnc(-c2ccc3c(c2)OCO3)o1)Oc1ccccc1` was inactive: 87%.
The value for `COc1cccc(Cn2c(SCC(=O)N3CCN(c4ccc(F)cc4)CC3)nc3ccccc32)c1` was inactive: 66%; that for `COc1ccccc1NC(=O)CSc1ncc2c(n1)-c1ccccc1N(Cc1ccccc1C)S2(=O)=O` was inactive: 101%.
The value for `Cc1ccc(CN(C(=O)c2ccc(C(C)(C)C)cc2)c2ccccn2)o1` was inactive: 53%; that for `Cc1nonc1C(=O)NCC(=O)O` was inactive: 94%; that for `CCOc1ccccc1CNC(=O)c1sc2ncccc2c1-n1cccc1` was inactive: 101%.
Turning to `CC(C)CC(=O)Nc1ccc2nc(SCC(=O)N3CCc4ccccc43)sc2c1`, the survival was inactive: 102%.
Next, `O=C(Cc1ccccc1)Nc1sc2c(c1C(=O)Nc1ccccc1Cl)CCCCC2`: inactive: 47%.
Next, `CC(C)c1ccc(NC(=O)CSC2=Nc3ccccc3C3=NC(CCC(=O)NC4CCCCC4)C(=O)N23)cc1` (centres undefined): inactive: 88%; `Cc1cc(C)n(-c2nc(N(c3ccccc3)c3ccccc3)nc(-n3nc(C)cc3C)n2)n1`: inactive: 95%; `COc1ccc2c(c1)CCc1c(C(=O)Nc3cc(OC)c(Cl)cc3OC)noc1-2`: inactive: 151%.
Consider `COC(=O)c1cc(Nc2nc3ccccc3nc2NS(=O)(=O)c2ccc(C)cc2)ccc1Cl`, for which the survival was active: 29%.
`O=C(Cn1c(=O)n(Cc2nc(-c3ccccc3)no2)c(=O)c2cc3c(cc21)OCO3)Nc1ccccc1`: the survival is inactive: 75%.
The value for `CCC(C)n1c(=O)c2sccc2n2c(CCCC(=O)N3CCN(c4ccccc4)CC3)nnc12` (centres undefined) was inactive: 89%; that for `CCOc1ccc(-n2c(SCC(=O)Nc3cc(C)ccc3C)nc3c([nH]c4ccccc43)c2=O)cc1` was inactive: 75%.
In the case of `Cc1ccc(Cn2cc(S(=O)(=O)c3cccc(C)c3)c(=O)c3cc(F)c(N4CCOCC4)cc32)cc1`, the survival was inactive: 84%.
The value for `COc1ccc(CNC(=O)c2sc3nc4n(c(=O)c3c2C)CCCC4)cc1` was inactive: 73%; that for `O=C(Nc1cc(-c2ccccc2)sc1C(=O)O)c1cccc(F)c1` was active: 38%.
The value for `Cc1ccccc1NC(=O)CSc1nccc(=O)[nH]1` was inactive: 59%.
The value for `CCn1c2ccccc2c2cc(CN3CCN(Cc4ccc(Br)cc4)CC3)ccc21` was active: -1%; that for `CC1N=C2c3ccccc3N=C(SCC(=O)NCCc3ccc(Cl)cc3)N2C1=O` (centres undefined) was inactive: 80%; that for `O=C(CCS(=O)(=O)c1cc2c(cc1Cl)NC(=O)CO2)NCc1ccc(Cl)cc1` was inactive: 86%.
Regarding `Cc1cccc(Nc2ncnc3onc(-c4ccc(Cl)cc4)c23)c1C`, the survival is inactive: 112%.
The value for `Cc1ccc(-n2c(=O)c3cccnc3n2CC(=O)NCc2ccc(Cl)cc2)cc1` was inactive: 50%; that for `Cc1ccc2oc3c(c(=O)c2c1)C(c1ccc(O)cc1)N(CCCN(C)C)C3=O` (centres undefined) was inactive: 130%; that for `COc1ccc(C(=O)Nc2cccc(C(=O)OCc3cc(=O)n4nc(C5CC5)sc4n3)c2)cc1` was inactive: 115%.
In the case of `Cc1cc(F)ccc1NC(=O)C(c1ccccc1)N1Cc2ccccc2C1=O` (centres undefined), the survival was inactive: 94%.
The value for `Nc1c(C(=O)Nc2ccc(F)cc2)sc2nc(-c3cccs3)cc(C(F)(F)F)c12` was inactive: 60%; that for `COC(=O)c1ccc([C@@H]2Nc3c(OC)ccc(C)c3[C@@H]3C=CC[C@@H]32)cc1` was inactive: 49%; that for `Cc1ccc(-c2cn3cccnc3n2)cc1NC(=O)C(C)(C)Oc1ccc(Cl)cc1` was inactive: 89%.
With `COc1ccc(Cl)cc1NC(=O)c1c(NCc2ccc(C)o2)sc2c1CCC(C)C2` (centres undefined), the survival is inactive: 81%.
Next, `Cc1c(C(=O)Nc2ccccc2Br)oc2ccc(S(=O)(=O)N3CCCCCC3)cc12`: inactive: 74%; `C=C(C)CSc1nc2sc3c(c2c(=O)n1Cc1ccccc1)CC(C)(CC)OC3` (centres undefined): active: 42%; `CCC(C)NC(=O)CN1C(=O)c2cccnc2Sc2ccccc21` (centres undefined): inactive: 87%.
The value for `COc1cccc(NCc2cccn2-c2nnc(N3CCC(C)CC3)s2)c1` was inactive: 135%; that for `O=c1cc(-c2ccccc2)c2ccc3c(c2o1)CN(Cc1cccc(Cl)c1)CO3` was inactive: 52%; that for `Cc1ccccc1NC(=O)Cn1c(=O)n(CCCC(=O)NCc2ccc3c(c2)OCO3)c(=O)c2ccccc21` was inactive: 111%.
The value for `COc1ccc2[nH]cc(CCN=C(NC(=O)c3ccccc3F)Nc3nc(C)cc(C)n3)c2c1` was inactive: 99%.
On to `COC(=O)c1ccccc1NC(=O)c1noc2c1CSc1ccccc1-2`, for which the survival is inactive: 67%.
Turning to `COc1ccc2nc(NC(=O)c3ccc(S(=O)(=O)N4CCC(C)CC4)cc3)sc2c1`, the survival is inactive: 91%.
Next, `CCOC(=O)c1cccc(NC(=O)NCCc2c(C)nn(C)c2C)c1`: inactive: 79%; `Cc1cccc(C)c1OCCCCn1c(C2CC(=O)N(c3ccc(F)cc3)C2)nc2ccccc21` (centres undefined): inactive: 77%.
The value for `CCc1ccc(NC(=O)N2CCN(Cc3cc(=O)n4nc(-c5ccccc5OC)sc4n3)CC2)cc1` was inactive: 94%; that for `Cn1c(=O)c2sccc2n2c(CCC(=O)N3CCN(c4ccccc4)CC3)nnc12` was inactive: 187%.
